The whole screen tested about 310,000 compounds, of which about 2,200 (0.71%) showed an effect of 50% or more. Effects have a minus sign here. The list shows a part of the results.

human ether-à-go-go-related gene (hERG) potassium channel, sequence (Q12809 whole entry, looked up): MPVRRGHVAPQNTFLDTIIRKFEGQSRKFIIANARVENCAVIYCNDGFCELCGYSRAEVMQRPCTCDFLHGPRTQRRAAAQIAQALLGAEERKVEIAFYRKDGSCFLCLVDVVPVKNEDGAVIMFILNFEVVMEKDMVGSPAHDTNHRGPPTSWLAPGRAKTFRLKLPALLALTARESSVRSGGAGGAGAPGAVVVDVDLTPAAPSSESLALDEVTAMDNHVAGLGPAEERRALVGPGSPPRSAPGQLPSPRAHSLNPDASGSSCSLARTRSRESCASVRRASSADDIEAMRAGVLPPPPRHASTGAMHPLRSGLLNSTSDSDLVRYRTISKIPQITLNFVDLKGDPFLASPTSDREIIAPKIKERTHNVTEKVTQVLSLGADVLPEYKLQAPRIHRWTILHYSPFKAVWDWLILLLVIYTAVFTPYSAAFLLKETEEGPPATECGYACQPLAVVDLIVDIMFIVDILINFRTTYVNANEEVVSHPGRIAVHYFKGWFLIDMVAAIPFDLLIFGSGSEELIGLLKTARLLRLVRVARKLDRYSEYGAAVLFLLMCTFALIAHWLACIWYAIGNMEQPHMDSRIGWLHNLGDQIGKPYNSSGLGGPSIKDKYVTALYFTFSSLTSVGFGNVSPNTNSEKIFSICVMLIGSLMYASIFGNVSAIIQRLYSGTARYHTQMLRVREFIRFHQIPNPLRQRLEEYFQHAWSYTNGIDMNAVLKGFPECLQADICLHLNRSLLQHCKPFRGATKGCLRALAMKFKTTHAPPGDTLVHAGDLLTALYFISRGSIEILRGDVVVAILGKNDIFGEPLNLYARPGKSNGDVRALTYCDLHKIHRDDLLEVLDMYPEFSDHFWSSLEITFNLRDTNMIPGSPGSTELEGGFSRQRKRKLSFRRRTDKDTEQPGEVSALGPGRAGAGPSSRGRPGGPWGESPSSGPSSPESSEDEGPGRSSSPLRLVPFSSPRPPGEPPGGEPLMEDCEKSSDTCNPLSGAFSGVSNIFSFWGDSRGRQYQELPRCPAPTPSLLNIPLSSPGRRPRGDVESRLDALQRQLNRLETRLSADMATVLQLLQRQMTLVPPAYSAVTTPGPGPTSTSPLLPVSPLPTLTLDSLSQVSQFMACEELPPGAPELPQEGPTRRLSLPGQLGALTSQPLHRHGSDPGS

This assay addresses human ether-à-go-go-related gene (hERG) potassium channel (human, UniProt Q12809). The assay is described as follows: primary screen, population patch clamp on CHO cells stably expressing hERG.
Turning to `CNC(=O)/C(C#N)=C/c1ccc(-c2ccccc2[N+](=O)[O-])o1`, the “hERG current change (%, negative = inhibition) at 1uM” value is recorded as 13.3%. The same measure for `CCCOC(=O)c1ccc(Nc2cc(C)nc3ncnn23)cc1`: -3.17%. In the case of `O=C(NCc1cccc(Cl)c1)c1ccc2nc(N3CCOCC3)sc2c1` it was 1.59%; in that of `O=C(CN1C(=O)c2ccccc2S1(=O)=O)NCc1ccco1`, 12.4%. The same measure for `Cn1c(-c2ccccc2)cnc1N`: 11.4%.

Regarding `O=C(CSc1nnc(-c2ccc(Cl)cc2)n1Cc1ccco1)c1cccs1`, the “hERG current change (%, negative = inhibition) at 1uM” value is listed as -6.36%. In the case of `CN(C(=O)c1ccccc1Cl)C1CCCCC1` it was 4.55%; in that of `CC[C@H](CO)Nc1nc(Nc2cccc(Cl)c2)c2ncn(C(C)C)c2n1`, 8.43%.

Turning to `COc1ccccc1/C=C1\SC(=O)N(CCC(=O)NCCCn2ccnc2)C1=O`, the “hERG current change (%, negative = inhibition) at 1uM” value is on record as 3.78%.

As for `COc1ccccc1N(CC(O)CN1CCOCC1)S(=O)(=O)c1ccccc1` (stereo not drawn), the “hERG current change (%, negative = inhibition) at 1uM” value is 9.84%.

Turning to `COC1CCCN(C(=O)c2cccc(OC3CCN(S(C)(=O)=O)CC3)c2)C1` (stereo not drawn), the “hERG current change (%, negative = inhibition) at 1uM” value is 12.6%. The same measure for `CCc1c(C(=O)Nc2ccc(OC)cc2)[nH]c(C)c1C(C)=O`: 4.29%; for `COc1ccc(NC(=O)CN2C(=O)S/C(=C/c3cccn3-c3ccc(C(=O)O)cc3)C2=O)cc1`: 11.8%; for `CN1CCc2c(sc(/N=C/c3cc(C(C)(C)C)ccc3O)c2C#N)C1`: 8.24%.

As to `CCOc1ccc(C(=O)Nc2ccc(S(=O)(=O)N3CCN(C)CC3)cc2)cc1`, the “hERG current change (%, negative = inhibition) at 1uM” value turned out to be 11.2%. For the molecule `Cc1cc(C)cc(OCC(=O)N2CCCCCC2)c1`, the “hERG current change (%, negative = inhibition) at 1uM” value is 6.75%.

As to `COc1ccc(C(=O)NCCn2cc(SCC(=O)NCc3ccco3)c3ccccc32)cc1`, the “hERG current change (%, negative = inhibition) at 1uM” value came out at 4.22%.

With `Cc1ccc(C2C3=C(CC(C)(C)CC3=O)N(CCN3CCOCC3)C3=C2C(=O)CC(C)(C)C3)cc1`, the “hERG current change (%, negative = inhibition) at 1uM” value is reported as -8.72%.

Consider `C#CCNC(=O)C1=C[C@@H](c2ccc(C#C)cc2)[C@H](CCCO)[C@@H](OCC)O1`, for which the “hERG current change (%, negative = inhibition) at 1uM” value is -0.679%.

On to `COc1cc(OC)c(C2=NOC(C(=O)NCCc3ccccc3)C2)cc1Cl` (stereo not drawn), for which the “hERG current change (%, negative = inhibition) at 1uM” value was -9.25%. The same measure for `CN(CCOc1ccccc1)CC(=O)Nc1ccc(Cl)c(S(=O)(=O)N(C)C)c1.O=C(O)C(=O)O`: 6.46%; for `CN(Cc1ccccc1)C(=O)c1[nH]cnc1C(=O)NCc1ccccc1`: 6.17%; for `Cc1cccc(-n2cc[nH]c2=S)c1C`: 12.5%. Regarding `COc1cc2c(cc1OC)CN(C(=S)Nc1ccc(OC(F)F)cc1)CC2`, the “hERG current change (%, negative = inhibition) at 1uM” value was -8.71%.

For `Cc1ccc(NC(=O)Cc2ncon2)cc1Cl`, the “hERG current change (%, negative = inhibition) at 1uM” value was 2.75%.

With `N#Cc1cccc(CS(=O)(=O)c2ccc(Cl)cc2)c1`, the “hERG current change (%, negative = inhibition) at 1uM” value came to 8.63%. The same measure for `CS(=O)(=O)c1cccc(C(=O)Nc2ccc(-c3nc4ccccc4[nH]3)cc2)c1`: 13.2%; for `COc1ccc(S(=O)(=O)N(CCc2ccccc2)CC(=O)O)cc1OC`: 14.1%; for `COc1cc2c(cc1OC)CN(c1ccc(F)cc1[N+](=O)[O-])CC2`: 7.41%. `O=C(O)/C=C/c1ccc(-c2cccc(C(F)(F)F)c2)o1`: the “hERG current change (%, negative = inhibition) at 1uM” value amounted to 9.47%.

For `CCc1cc(C(=O)NNC(=S)NC2CCCCC2)cs1`, the “hERG current change (%, negative = inhibition) at 1uM” value turned out to be 7.88%. Take `CCn1ccnc1CN1CCc2c([nH]c3ccccc23)C1CC(C)C` (stereo not drawn): the “hERG current change (%, negative = inhibition) at 1uM” value was -28.6%. In the case of `COC(=O)c1ccccc1NC(=O)CSc1nc(-c2ccco2)cc(C(F)(F)F)n1` it was 4.49%; in that of `COc1ccc(NC(=O)CC(C)C)c(OC)c1`, 14.4%. For the molecule `CCOP(=O)(OCC)c1ccc2c(c1)C(=O)c1ccccc1CC2`, the “hERG current change (%, negative = inhibition) at 1uM” value is 11.6%. The same measure for `Cc1ccc(S(=O)(=O)NC(C)C(=O)NC2CCCCCC2)cc1` (stereo not drawn): -2.05%; for `COC(=O)c1sccc1-c1ccc(/C=N/OC(=O)c2cccs2)o1`: 8.32%; for `O=C(NC(Cc1ccccc1)C(=O)NC1CC1)OCc1ccccc1` (stereo not drawn): 19.2%. The same measure for `O=C(CSc1cn(Cc2ccccc2)c2ccccc12)N1CCOCC1`: -4.92%. In the case of `CCOC(=O)c1cnc2c(C)cc(Cl)cc2c1NCCCN1CCOCC1` it was 10.3%. Regarding `COc1cc(C(=O)OCC(=O)c2cc(C)n(C)c2C)cc(NC(=O)c2ccco2)c1OC`, the “hERG current change (%, negative = inhibition) at 1uM” value came out at 16.2%. The same measure for `CS(=O)(=O)N1CCCC(C(=O)NCc2ccco2)C1` (stereo not drawn): 10.9%; for `O=C(Nc1ccc2c(c1)OCCO2)c1c(F)c(F)c(F)c(F)c1F`: 14.7%. Take `COc1cccc(NC(=S)N(CCCN2CCOCC2)Cc2cn(C)c3ccccc23)c1`: the “hERG current change (%, negative = inhibition) at 1uM” value is -0.736%. The same measure for `O=C(NCCOc1ccccc1)c1ccccc1`: 7.22%; for `COc1ccc(N=Cc2c(O)n(C)c(=O)n(C)c2=O)cc1`: 13.3%; for `COc1ccc(NC(=O)c2cc(OC)c(OC)c(OC)c2)cc1S(=O)(=O)N1CCCCC1`: 13.8%. In the case of `CN(C)/N=C/c1cc([N+](=O)[O-])ccc1O` it was 6.07%; in that of `O=C(NCc1nnc2n1CCCCC2)c1ccc(Cl)cc1Cl`, 7.1%; in that of `COc1ccc(-c2csc(NC(=O)COC(=O)Cc3ccc(Cl)cc3Cl)n2)cc1`, 3.85%. In the case of `COc1cccc(/C=N/Nc2ncnc3scc(-c4ccccc4)c23)c1O` it was 3.17%; in that of `COc1ccc(N2Cc3ccc(OC)c(OC)c3C2=O)cc1`, 18.3%. Take `CO/N=C/NC(=O)c1c(OC)ccnc1Oc1cccc(C(F)(F)F)c1`: the “hERG current change (%, negative = inhibition) at 1uM” value amounted to 5.83%. The same measure for `COc1ccc2[nH]c(=O)c(NC(N)=S)nc2c1`: 10.1%; for `CCN1/C(=C/c2ccc3cc(C)ccc3[n+]2CC)Sc2ccc3sccc3c21.[I-]`: 10.9%; for `COc1ccc(/C=N/Nc2cc(C)nc3ccc(OC)cc23)c(OC)c1`: 11.2%. The same measure for `COc1ccc(CNCC(O)(c2ccc(Cl)cc2)c2ccc(Cl)cc2)cc1`: 5.56%.
